A number of entries come with more than one value. The other results are left out here. An entry can have further records. Values given together are repeats in other runs, samples, wells, individuals or studies.

This assay relates to 855422-203-R-J1-PDC complex spheroid viability. As to the kind of experiment: Anticancer human tumor 855422-203-R-J1-PDC patient-derived bladder carcinoma cell line growth inhibition. The following applies: stronger effect = lower value. The text has this: Multicellular complex tumor spheroid response to LSD1 Inhibitor Iadademstat in combination with a variety of drugs and investigational agents in selected tumor cell lines
The current study was undertaken to assess response to LSD1 inhibitors in combination with standard-of-care drugs and investigational agents in solid tumor complex spheroid models as well as in the K-562 leukemia. Complex spheroids include a stromal component modeled by human endothelial cells (HUVEC) and fibroblasts modeled by human mesenchymal stem cells (MSCs). The concentration ranges selected for each drug and investigational agent were based upon clinically achievable concentrations if the clinical Cmax of the agent was known.
Compounds. The drugs and investigational agents used in this study are listed on Table 1. All of the agents used, including staurosporine (NSC755774) and gemcitabine (NSC613327), were obtained from the Developmental Therapeutics Program, NCI. FDA-approved anticancer drugs are available from the NCI at http://dtp.nci.nih.gov/branches/dscb/oncology_drugset_explanation.html. Drugs and investigational agents were >95% pure by proton nuclear magnetic resonance (NMR) and liquid chromatography/mass spectrometry (LC/MS). […] If the clinical Cmax for an agent had not been determined, the highest concentration tested was 10 microM. […]
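Note: drug exposure lasted 7 days starting on day 3 after seeding; luminescence viability as percent of DMSO vehicle wells = 100%.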

Consider `NC1CC1c1ccc(-c2cccc(O)c2)cc1` (configuration not stated), for which the viability, T/C is 82.6, 84, 93, 88.7, 83.7, 96.3, 85.5, 87.7, 84.7, 87.8, 94, 90.4, 94.6, 87, 88.2, 109, 86.5, 91.4, 86.7, 91.7, 83, 81.5, 89.4, 85, 92.3% (compound alone 3.16 µM) and 81, 74.3, 97, 81.8, 78.8, 94.1, 80.7, 88.1, 82.9, 90.6, 89.5, 97.3, 85.1, 81.3, 83, 114, 84.2, 87.3, 78.9, 94.2, 76.9, 91.5, 85.3, 95.5% (compound alone 10 µM).

What is called viability, T/C is the ratio of treated to control.

Source of the values: PubChem BioAssay AID1918943 (Molecular Pharmacology Branch, DTP, NCI, 2023).
